# Source: PubChem BioAssay AID1645887 (National Center for Advancing Translational Sciences (NCATS), 2021)
# “And” between values parts separate entries of the source, which are not always exact repeats. Equal entries are not always repeated. In all, about 16,000 compounds went through this assay and about 40 (0.2%) were called active. Roughly 1% stayed inconclusive and do not appear here. The call rests on the fitted dose curve; in most records, active means well fitted activation curve with a large enough effect; inconclusive means small, poorly fitted or top-dose-only effect, or another doubt; inactive means no such curve, though single readings can be large or run the other way. Some of the results follow. A structure can be active in one record and inactive in another.
# Molecular target: Rap guanine nucleotide exchange factor 4 (Homo sapiens) (UniProt Q8WZA2)
# Assay: Validation qHTS for agonist of cAMP-regulated guanine nucleotide exchange factor 4 (EPAC2);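 further: exchange makes BODIPY-GDP fluorescence drop when released from Rap1B; series mostly up to about 150 µM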
# Conditions: EPAC2 Rap1B BODIPY-GDP exchange, fluorescence; activation: active compounds read high
# In short: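 Signal normalized against 6.5 mM cAMP as agonist control. Mix of EPAC2 (100 nM), RAP1B-BODIPY-GDP (250 nM) and GDP (50 uM) was read kinetically at 480/540 nm, every 5 min over 30 min, after 5 min room-temperature incubation with compound.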
# On the % scale 0 is the no-effect control and ±100 the full control effect.
# Chain of UniProt Q8WZA2 (Q8WZA2 whole entry, looked up): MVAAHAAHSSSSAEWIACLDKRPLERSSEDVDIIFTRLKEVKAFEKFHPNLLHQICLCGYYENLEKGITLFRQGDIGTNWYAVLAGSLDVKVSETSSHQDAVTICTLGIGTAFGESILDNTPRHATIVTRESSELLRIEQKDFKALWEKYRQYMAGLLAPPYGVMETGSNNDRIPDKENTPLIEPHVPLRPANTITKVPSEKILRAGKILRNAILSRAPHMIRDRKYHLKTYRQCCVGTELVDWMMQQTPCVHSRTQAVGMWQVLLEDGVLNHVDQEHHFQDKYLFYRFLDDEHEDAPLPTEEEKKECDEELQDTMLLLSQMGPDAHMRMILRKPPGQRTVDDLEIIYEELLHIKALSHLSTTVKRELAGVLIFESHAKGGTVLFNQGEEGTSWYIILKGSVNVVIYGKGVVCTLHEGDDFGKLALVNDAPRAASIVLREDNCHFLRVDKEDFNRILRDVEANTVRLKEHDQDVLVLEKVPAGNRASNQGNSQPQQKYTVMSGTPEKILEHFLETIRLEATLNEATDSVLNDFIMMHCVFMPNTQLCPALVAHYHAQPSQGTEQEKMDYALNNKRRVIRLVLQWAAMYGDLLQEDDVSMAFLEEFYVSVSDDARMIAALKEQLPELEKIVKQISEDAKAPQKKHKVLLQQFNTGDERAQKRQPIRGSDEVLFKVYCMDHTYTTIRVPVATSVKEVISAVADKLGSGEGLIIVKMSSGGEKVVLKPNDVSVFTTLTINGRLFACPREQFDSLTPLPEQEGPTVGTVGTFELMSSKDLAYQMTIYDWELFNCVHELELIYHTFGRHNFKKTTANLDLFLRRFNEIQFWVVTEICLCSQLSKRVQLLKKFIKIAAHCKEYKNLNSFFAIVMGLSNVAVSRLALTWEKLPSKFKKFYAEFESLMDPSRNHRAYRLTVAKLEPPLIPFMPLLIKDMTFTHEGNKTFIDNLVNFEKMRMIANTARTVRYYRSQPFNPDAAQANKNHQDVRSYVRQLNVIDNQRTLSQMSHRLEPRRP
row,SMILES,activation
1,O=C(O)c1cc[c]([Hg][Cl])cc1,inactive: -22.4%
2,FC(F)(F)c1cccc(N2CCNCC2)c1,inactive: -2.91%
3,CC1=NN=C(c2ccc(N)cc2)c2cc3c(cc2C1)OCO3,inactive: -34.2%
4,COc1cc(=O)n2c(c1C(=O)N(C)Cc1nonc1C)CCN(C(=O)C1C(C)(C)C1(C)C)CC2,inactive: 7.62%
5,CC(=O)O.CC(=O)O.[Cd],inactive: -17.7%
6,CC1CC(Cl)CCC1C(=O)OC(C)(C)C (configuration not stated),inactive: 0.367%
7,Cc1c(O)c(O)cc2c1CC=C1[C@]3(C)CC[C@]4(C)CC[C@@](C)(C(=O)O)CC4[C@]3(C)CC[C@]12C (some centres not stated),inactive: -14.1%
8,COc1ccccc1N1CCNCC1,inactive: 2.1% and inactive: -22% and inactive: 12.3%
9,CC1(C)S[C@H]2[C@@H](N)C(=O)N2[C@H]1C(=O)O,inactive: 2.37%
10,CC(=O)[C@H]1CC[C@H]2[C@@H]3CC[C@H]4C[C@H](O)CC[C@]4(C)[C@H]3C(=O)C[C@]12C,inactive: -6.54% and inactive: -27.4%
11,CCOc1cc(C=O)ccc1O,inactive: -6.75%
12,CC1CC2CC(=O)C3CCCN4CCCC2[C@]34C1 (some centres not stated),inactive: -10.7%
13,C=C1C[C@@H]2[C@H](CC[C@]3(C)C(=O)CC[C@@H]23)[C@@]2(C)C=CC(=O)C=C12,inactive: -11.3%
14,CNC(C)Cc1ccccc1OC (configuration not stated),inactive: -6.91%
15,CC(=O)OC1C[C@@]2(C)C(c3ccoc3)C[C@H]3O[C@@]32[C@@]2(C)C(=O)C(O)=C3C(C)(C)C(=O)C=C[C@]3(C)C12 (some centres not stated),inactive: -1.74%
16,CC1C(=O)OC2CCN3CC=C(COC(=O)[C@](C)(O)[C@]1(C)O)C23 (some centres not stated),inactive: -7.44%
17,CCCCC/C=C\C/C=C\C/C=C\C/C=C\CCCC(=O)NCC(=O)O,inactive: -20.4% and inactive: -6.2%
18,O=C(Nc1cccc(F)c1)N1CC2(CCN(C(=O)Oc3ccccc3)CC2)C1,inactive: 9.35%
19,O=C(N[C@H]1N=C(c2ccccc2F)c2cccc3c2N(CC3)C1=O)c1cc2ccccc2[nH]1,inactive: -1.47%
20,C=C1C([C@@]2(C)C(OC(C)=O)CC(=O)O[C@@](C)(COC(C)=O)C2CC(=O)OC)C(OC=O)C(OC(=O)C(OC(C)=O)C(C)CC)[C@]2(C)C(c3ccoc3)CC(=O)C12O (some centres not stated),inactive: -32.9%
21,ClCCN(CCCl)c1ccc(C=Nc2ccc(/C=C/c3ccnc4ccccc34)cc2)cc1,inactive: 8.72%
22,CS(=O)(=O)N1CCC2(CCCN(Cc3ccncc3)C2)CC1,inactive: -4.05%
23,O=C1NCN(c2ccccc2)C12CCN(C[C@H]1COc3ccccc3O1)CC2,inactive: -0.816%
24,CC(O)CN1CCN(CC(=O)[O-])CCN(CC(=O)[O-])CCN(CC(=O)[O-])CC1.[Gd+3] (configuration not stated),inactive: -3.81% and inactive: -4.93%
25,NC(=O)[C@H](Cc1ccccc1)NC(=O)[C@H](Cc1c[nH]c2ccccc12)NC(=O)[C@@H]1CCCN1C(=O)[C@@H](N)Cc1ccc(O)cc1,inactive: 6.05%
26,O=C(c1ccco1)N1CCC2(CC1)CN(Cc1ccncc1)C2,inactive: 2.41%

row,SMILES,activation
1,CCN(Cc1ccc(Cl)nc1)/C(=C/[N+](=O)[O-])NC,inactive: -28.3%
2,C1CN(P2(N3CC3)=NP(N3CC3)(N3CC3)=NP(N3CC3)(N3CC3)=N2)CCO1 (configuration not stated),inactive: -12.1%
3,CNC(=O)Oc1cccc2c1OC(C)(C)C2,inactive: -9.27%
4,C/C(O)=C(\C#N)C(=O)Nc1cc(Br)ccc1Br,inactive: -42.9%
5,CN1CC[C@]23c4c5ccc(O)c4O[C@H]2[C@@H](O)CC[C@H]3[C@H]1C5,inactive: 25.7%
6,COc1cc([C@@H]2c3cc4c(cc3[C@@H](O)[C@H]3COC(=O)[C@H]23)OCO4)cc(OC)c1O,inactive: 4.73%
7,c1ccc2c(c1)Sc1ccccc1N2C[C@@H]1CN2CCC1CC2,inactive: 0.111%
8,CN1CC[C@@]2(CCCN(C(=O)Oc3ccccc3)C2)C1,inactive: -40.5%
9,OC[C@@H](O)[C@H]1O[C@@H]2O[C@@H](C(Cl)(Cl)Cl)O[C@@H]2[C@H]1O,inactive: 0.942%
10,CCCC(C)(COC(N)=O)COC(=O)NC(C)C (configuration not stated),inactive: -11.8% and inactive: 8.2% and inactive: -41.4%
11,COc1ccc(CC2NCC(O)C2OC(C)=O)cc1 (configuration not stated),inactive: -0.735%
12,CCCC1CCCCN1 (configuration not stated),inactive: -30.4%
13,CN1C(=O)CC(=O)N(c2ccccc2)c2cc(Cl)ccc21,inactive: 11.7%
14,CCC1(C)CC(=O)NC(=O)C1,inactive: -41.9%
15,Cc1cccc(C(C)c2cnc[nH]2)c1C (configuration not stated),inactive: -11.7%
16,COc1cc(OC)c(OC)cc1C=O,inactive: 14.5% and inactive: -5.57%
17,O=C(O)[C@@H]1C[C@H]2C[C@@H](CP(=O)(O)O)CC[C@H]2CN1,inactive: 0.869%
18,COc1cc2c(cc1O)CC1c3c(cc(O)c(OC)c3-2)CCN1C (configuration not stated),inactive: -18.6% and inactive: -1.34%
19,C#CC(C)(O)CC (configuration not stated),inactive: -4.39%
20,C[C@H](NC(=O)[C@@H](N)Cc1ccc(O)cc1)C(=O)NCC(=O)N(C)[C@@H](Cc1ccccc1)C(=O)N[C@H](CO)CCS(C)=O (some centres not stated),inactive: -0.423%
21,Clc1ccc(C(c2ccc(Cl)cc2)C(Cl)(Cl)Cl)cc1,inactive: -5.78% and inactive: -16.6%
22,COC[C@]12CN(C=O)C3C4C(OC)C1[C@@]3(C1CC3(O)C(OC)C(O)C4(OC(C)=O)C1C3OC(=O)c1ccccc1)[C@@H](OC)CC2O (some centres not stated),inactive: 4.01%
23,CCC1CN2CCC1CC2C(O)c1ccnc2ccc(OC)cc12 (configuration not stated),inactive: -15.6%
24,COc1cc(N)c(Cl)cc1C(=O)NC1CN2CCC1CC2 (configuration not stated),inactive: -11.5%
25,C[C@H]1C(=O)O[C@H]2CCN3CC=C(COC(=O)[C@](C)(O)[C@@]1(C)O)C23 (some centres not stated),inactive: 6.08%
26,CC(=O)OC1C2C(OC(=O)Cc3ccccc3)C(C)CC2(OC(C)=O)C(=O)/C(C)=C/C2C(CC[C@@]13CO3)C2(C)C (some centres not stated),inactive: -8.85%
